# Measurements taken from PubChem BioAssay (NCATS).
# Where “and” joins values, the source holds several entries; their conditions need not be identical. Equal values may be shown once. This list was built around the results that the source calls inconclusive (neither active nor inactive); the mix of calls is not that of the screen. For some assays here: Where the call is inconclusive, the potency comes from a doubtful curve fit. Calls of active or inactive are those of the source. Unless noted, the call rests on the fitted dose curve; in most records, active means well fitted curve in the direction sought with a large enough effect; inconclusive means small, poorly fitted or top-dose-only effect, or another doubt; inactive means no such curve, though single readings can be large; an effect the other way counts as inactive or inconclusive.
# Assays:
# [1] = target: Cytochrome P450 2C9 (Homo sapiens) (UniProt P11712); assay: Cytochrome P450 family 2 subfamily C member 9 (CYP2C9) small molecule antagonists: luciferase biochemical (cell-free) qHTS assay (AID 1645842; active means well fitted curve in the direction sought with a large enough effect in the repeat runs; inconclusive means weak or mixed curves; inactive means no such curve, though single readings can be large; an effect the other way counts as inactive or inconclusive; further: nearly all actives have a fitted effect of over 55% in size; further: potency means the concentration at half of the fitted maximal effect); conditions: P450-Glo CYP2C9 enzyme assay, luciferin luminescence; series mostly up to 57.4 µM
# Chain of UniProt P11712 (P11712 whole entry, looked up): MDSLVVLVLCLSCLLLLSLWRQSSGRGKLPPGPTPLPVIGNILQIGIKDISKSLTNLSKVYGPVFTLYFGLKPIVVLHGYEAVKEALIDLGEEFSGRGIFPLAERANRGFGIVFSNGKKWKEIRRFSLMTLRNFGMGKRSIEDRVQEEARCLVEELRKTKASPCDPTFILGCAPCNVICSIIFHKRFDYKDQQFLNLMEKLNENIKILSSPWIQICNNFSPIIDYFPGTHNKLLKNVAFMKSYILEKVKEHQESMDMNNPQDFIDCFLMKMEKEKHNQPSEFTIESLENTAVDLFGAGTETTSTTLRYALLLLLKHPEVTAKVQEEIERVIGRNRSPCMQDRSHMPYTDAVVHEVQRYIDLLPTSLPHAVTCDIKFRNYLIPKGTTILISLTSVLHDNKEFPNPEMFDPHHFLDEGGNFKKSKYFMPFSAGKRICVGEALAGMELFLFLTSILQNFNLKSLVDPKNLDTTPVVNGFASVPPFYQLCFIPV
# In short: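 Luminescence, after 20 min with luciferin detection reagent, reflected CYP2C9 turnover during a 1 h NADPH-driven reaction at 37C. Enzyme-substrate mix contained 0.4% bovine serum albumin and was preincubated with compound 10 min at room temperature.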
# [2] = Primary qHTS for inhibitors of nuclear receptor binding SET domain protein 2 (NSD2) in an isogenic RCH-ACV NSD2 p.E1099K mutant (9B) (AID 1645876); conditions: RCH-ACV NSD2 E1099K (9B) viability, CellTiter-Glo, 72 h; series mostly up to 44.9 µM; further: nearly all actives have a fitted effect of over 70% in size; further: potency means the concentration at half of the fitted maximal effect
# Papain (Carica papaya) = Papain (Carica papaya) (UniProt P00784); assay: Primary qHTS assay for inhibitors of the protease papain (AID 1645873); conditions: papain Z-FR-AMC cleavage, AMC fluorescence; series mostly up to 49.8 µM;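 further: papain turnover of Z-FR-AMC read as the AMC fluorescence gain over 10 min; potency means the concentration at half of the fitted maximal effect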
# Chain of UniProt P00784 (P00784 whole entry, looked up, the tested form may be a part): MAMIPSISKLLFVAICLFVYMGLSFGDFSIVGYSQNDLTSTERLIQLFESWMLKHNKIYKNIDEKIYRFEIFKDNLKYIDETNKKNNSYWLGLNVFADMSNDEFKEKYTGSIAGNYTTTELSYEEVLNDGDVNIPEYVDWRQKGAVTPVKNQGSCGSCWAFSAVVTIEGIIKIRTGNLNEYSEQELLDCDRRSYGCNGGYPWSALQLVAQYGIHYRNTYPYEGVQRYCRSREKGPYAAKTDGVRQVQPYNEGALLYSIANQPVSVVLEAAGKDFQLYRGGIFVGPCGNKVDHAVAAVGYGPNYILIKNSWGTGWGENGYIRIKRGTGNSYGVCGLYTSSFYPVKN
# [3] = Primary qHTS for inhibitors of nuclear receptor binding SET domain protein 2 (NSD2) in an RCH-ACV wild type WT cells (2C) (AID 1645877); conditions: RCH-ACV (leukaemia line) NSD2 WT (2C) viability, CellTiter-Glo, 72 h; series mostly up to 44.9 µM; further: potency means the concentration at half of the fitted maximal effect; nearly all actives have a fitted effect of over 70% in size
# [4] = target: Cytochrome P450 2D6 (Homo sapiens) (UniProt P10635); assay: Cytochrome P450 family 2 subfamily D member 6 (CYP2D6) small molecule antagonists: luciferase biochemical (cell-free) qHTS assay (AID 1645840; active means well fitted curve in the direction sought with a large enough effect in the repeat runs; inconclusive means weak or mixed curves; inactive means no such curve, though single readings can be large; an effect the other way counts as inactive or inconclusive; further: nearly all actives have a fitted effect of over 55% in size); conditions: P450-Glo CYP2D6 enzyme, luciferin luminescence, 1 h; series mostly up to 57.4 µM
# Chain of UniProt P10635 (P10635 whole entry, looked up): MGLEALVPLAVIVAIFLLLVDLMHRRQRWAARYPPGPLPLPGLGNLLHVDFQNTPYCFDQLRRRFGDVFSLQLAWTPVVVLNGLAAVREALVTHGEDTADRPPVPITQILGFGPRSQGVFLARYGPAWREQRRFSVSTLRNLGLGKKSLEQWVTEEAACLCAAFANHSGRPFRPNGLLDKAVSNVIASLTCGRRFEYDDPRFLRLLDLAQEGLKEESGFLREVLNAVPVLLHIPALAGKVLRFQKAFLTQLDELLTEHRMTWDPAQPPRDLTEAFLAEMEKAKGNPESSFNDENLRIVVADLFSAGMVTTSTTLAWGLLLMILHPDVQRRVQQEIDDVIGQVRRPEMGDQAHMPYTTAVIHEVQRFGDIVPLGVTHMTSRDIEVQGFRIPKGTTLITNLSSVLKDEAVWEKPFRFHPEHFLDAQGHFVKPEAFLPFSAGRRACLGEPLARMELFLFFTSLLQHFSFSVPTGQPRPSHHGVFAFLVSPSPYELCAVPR
# In short: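 P450-Glo luminescent screen: recombinant CYP2D6 enzyme–proluciferin substrate mix preincubated with compound 10 min at room temperature, then NADPH regeneration added for 1 h at room temperature. Detection reagent added for 20 min; luciferin light read as relative luminescence units.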
# [5] = target: Cytochrome P450 3A4 (Homo sapiens) (UniProt P08684); assay: Cytochrome P450 family 3 subfamily A member 4 (CYP3A4) small molecule antagonists: luciferase qHTS assay (AID 1645841; active means well fitted curve in the direction sought with a large enough effect in the repeat runs; inconclusive means weak or mixed curves; inactive means no such curve, though single readings can be large; an effect the other way counts as inactive or inconclusive; further: potency means the concentration at half of the fitted maximal effect; nearly all actives have a fitted effect of over 45% in size); conditions: P450-Glo CYP3A4 enzyme assay, luciferin luminescence; series mostly up to 57.4 µM
# Chain of UniProt P08684 (P08684 whole entry, looked up): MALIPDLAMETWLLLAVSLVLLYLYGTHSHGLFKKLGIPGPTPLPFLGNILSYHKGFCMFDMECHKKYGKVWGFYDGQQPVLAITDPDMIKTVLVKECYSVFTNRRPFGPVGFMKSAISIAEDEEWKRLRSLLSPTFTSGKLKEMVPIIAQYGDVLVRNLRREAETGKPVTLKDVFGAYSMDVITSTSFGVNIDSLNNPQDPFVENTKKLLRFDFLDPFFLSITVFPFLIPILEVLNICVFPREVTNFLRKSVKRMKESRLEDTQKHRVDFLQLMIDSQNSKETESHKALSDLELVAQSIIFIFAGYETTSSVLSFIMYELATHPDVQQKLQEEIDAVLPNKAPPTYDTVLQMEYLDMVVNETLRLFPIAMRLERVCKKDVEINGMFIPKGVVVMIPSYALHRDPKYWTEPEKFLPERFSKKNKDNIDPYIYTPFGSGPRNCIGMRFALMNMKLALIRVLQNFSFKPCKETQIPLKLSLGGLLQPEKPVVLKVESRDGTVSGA
# In short: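 Luminescent CYP3A4 activity readout: compounds plus enzyme-substrate mix 10 min at room temperature, reaction started with NADPH regenerating system for 1 h, stopped with detection reagent, read after 20 min. Ketoconazole served as control.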
# [6] = target: Rap guanine nucleotide exchange factor 3 (Homo sapiens) (UniProt O95398); assay: Confirmatory qHTS for antagonist of cAMP-regulated guanine nucleotide exchange factor 3 (EPAC1) (AID 1645880); conditions: EPAC1 Rap1B-BODIPY-GDP exchange, fluorescence; series mostly up to 115 µM; further: nearly all actives have a fitted effect of over 55% in size
# Chain of UniProt O95398 (O95398 whole entry, looked up): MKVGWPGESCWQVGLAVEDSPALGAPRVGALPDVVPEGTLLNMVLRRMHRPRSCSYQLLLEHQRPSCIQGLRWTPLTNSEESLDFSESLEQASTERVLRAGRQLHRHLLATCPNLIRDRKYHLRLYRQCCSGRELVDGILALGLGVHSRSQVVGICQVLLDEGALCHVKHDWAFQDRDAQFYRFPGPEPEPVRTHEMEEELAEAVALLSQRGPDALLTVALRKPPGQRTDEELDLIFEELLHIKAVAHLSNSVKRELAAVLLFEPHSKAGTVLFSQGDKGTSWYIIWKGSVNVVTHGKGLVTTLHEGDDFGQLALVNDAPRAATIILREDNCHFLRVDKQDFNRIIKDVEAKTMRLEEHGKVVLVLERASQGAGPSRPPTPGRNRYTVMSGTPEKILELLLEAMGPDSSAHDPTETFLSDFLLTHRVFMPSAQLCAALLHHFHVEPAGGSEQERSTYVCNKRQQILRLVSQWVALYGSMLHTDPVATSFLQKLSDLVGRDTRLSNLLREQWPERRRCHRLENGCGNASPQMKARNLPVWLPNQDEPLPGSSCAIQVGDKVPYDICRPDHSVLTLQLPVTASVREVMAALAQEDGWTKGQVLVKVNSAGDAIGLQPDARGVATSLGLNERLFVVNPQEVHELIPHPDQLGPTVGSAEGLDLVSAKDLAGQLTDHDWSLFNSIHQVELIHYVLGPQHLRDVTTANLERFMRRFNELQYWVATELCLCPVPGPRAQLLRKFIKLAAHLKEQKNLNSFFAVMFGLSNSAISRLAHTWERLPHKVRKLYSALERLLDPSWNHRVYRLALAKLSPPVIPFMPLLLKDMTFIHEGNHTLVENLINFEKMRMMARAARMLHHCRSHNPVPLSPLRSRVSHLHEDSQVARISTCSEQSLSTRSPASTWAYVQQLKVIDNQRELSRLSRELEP
# In short: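 Nucleotide exchange uses 100 nM EPAC1, 250 nM RAP1B-BODIPY-GDP and 50 uM GDP, with compounds in a concentration-titration series. After 5 min at room temperature, fluorescence (480 nm ex/540 nm em) is read every 5 min for 30 min. Data are normalized to control ATA and DMSO.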
# [7] = target: Rap guanine nucleotide exchange factor 3 (Homo sapiens) (UniProt O95398); assay: Confirmatory qHTS for agonist of cAMP-regulated guanine nucleotide exchange factor 3 (EPAC1) (AID 1645881); conditions: EPAC1 Rap1B BODIPY-GDP exchange fluorescence; series mostly up to 154 µM; further: potency means the concentration at half of the fitted maximal effect; nearly all actives have a fitted effect of over 75% in size
# [8] = target: Rap guanine nucleotide exchange factor 4 (Homo sapiens) (UniProt Q8WZA2); assay: Confirmatory qHTS for antagonist of cAMP-regulated guanine nucleotide exchange factor 4 (EPAC2) (AID 1645885); conditions: EPAC2 Rap1B-BODIPY-GDP exchange fluorescence, biochemical; series mostly up to 114 µM; further: nearly all actives have a fitted effect of over 25% in size; further: potency means the concentration at half of the fitted maximal effect
# Chain of UniProt Q8WZA2 (Q8WZA2 whole entry, looked up): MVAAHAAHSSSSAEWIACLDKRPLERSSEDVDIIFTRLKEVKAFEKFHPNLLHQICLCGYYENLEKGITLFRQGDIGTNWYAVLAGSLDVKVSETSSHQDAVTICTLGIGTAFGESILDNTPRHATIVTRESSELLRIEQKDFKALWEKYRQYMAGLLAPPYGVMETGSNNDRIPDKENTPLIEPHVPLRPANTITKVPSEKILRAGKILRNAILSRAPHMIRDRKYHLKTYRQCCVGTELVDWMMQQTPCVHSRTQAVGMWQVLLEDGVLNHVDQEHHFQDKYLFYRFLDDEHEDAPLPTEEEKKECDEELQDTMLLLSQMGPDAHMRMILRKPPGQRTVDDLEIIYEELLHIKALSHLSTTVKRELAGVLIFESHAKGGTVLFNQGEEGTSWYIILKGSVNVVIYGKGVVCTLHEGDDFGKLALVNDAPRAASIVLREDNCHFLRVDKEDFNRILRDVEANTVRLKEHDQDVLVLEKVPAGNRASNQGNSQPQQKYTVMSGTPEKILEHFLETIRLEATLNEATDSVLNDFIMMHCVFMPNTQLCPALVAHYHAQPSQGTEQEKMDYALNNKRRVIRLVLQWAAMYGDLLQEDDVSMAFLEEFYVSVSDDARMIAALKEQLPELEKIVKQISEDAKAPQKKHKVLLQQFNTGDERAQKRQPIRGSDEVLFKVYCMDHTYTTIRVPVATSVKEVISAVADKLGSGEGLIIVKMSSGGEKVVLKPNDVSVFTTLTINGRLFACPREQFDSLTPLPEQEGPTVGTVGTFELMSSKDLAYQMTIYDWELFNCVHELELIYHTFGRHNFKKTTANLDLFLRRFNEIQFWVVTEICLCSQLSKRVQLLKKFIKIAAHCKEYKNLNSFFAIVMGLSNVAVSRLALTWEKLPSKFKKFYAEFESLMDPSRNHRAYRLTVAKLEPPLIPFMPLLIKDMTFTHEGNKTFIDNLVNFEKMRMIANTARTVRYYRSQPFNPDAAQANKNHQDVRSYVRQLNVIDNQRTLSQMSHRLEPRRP
# [9] = target: Nuclear receptor subfamily 1 group I member 3 (Homo sapiens) (UniProt Q14994); assay: Primary qHTS for antagonist of constitutive androstane receptor (CAR) against the NCATS DSHEA and TCM libraries (AID 1794836); conditions: CAR reporter cell assay, antagonist mode, luciferase; series mostly up to 40 µM;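 further: HepG2 cells stably expressing hCAR with CYP2B6 luciferase reporter stimulated by CITCO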
# Chain of UniProt Q14994 (Q14994 whole entry, looked up): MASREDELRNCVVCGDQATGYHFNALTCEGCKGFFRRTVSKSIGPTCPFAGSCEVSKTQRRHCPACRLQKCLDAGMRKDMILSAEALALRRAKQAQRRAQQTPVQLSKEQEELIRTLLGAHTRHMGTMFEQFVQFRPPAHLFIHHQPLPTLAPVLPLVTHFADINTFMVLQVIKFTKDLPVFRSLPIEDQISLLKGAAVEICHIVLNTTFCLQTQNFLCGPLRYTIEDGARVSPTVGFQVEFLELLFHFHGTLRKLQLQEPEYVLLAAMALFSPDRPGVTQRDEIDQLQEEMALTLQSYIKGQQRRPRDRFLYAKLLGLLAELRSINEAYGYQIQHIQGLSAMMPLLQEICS
# In short: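 Antagonist mode: CAR reporter luminescence (ONE-Glo) in HepG2-CYP2B6-hCAR cells stimulated with 48 uM CITCO (final) over 24 h at 37 C, compounds titrated; viability read first by CellTiter-Fluor fluorescence.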
# Tags describe the fitted curve by direction and shape.
smiles,measurement,setting,value
C=C1CC[C@@H]2[C@](C)(CO)[C@H](O)CC[C@@]2(C)[C@@H]1C/C=C1/C(=O)OC[C@H]1O,Potency,[1],"inconclusive: 30.1 µM [inhibitor, partial curve, poor fit] and inactive"
same,Potency,[2],active: 8.33 µM
Nc1ccc(S(=O)(=O)Nc2ccccc2)cc1,Potency,[1],inactive
CCN1CCc2nc(N)oc2CC1,Potency,Papain (Carica papaya),"inconclusive: 15.8 µM [inhibitor, partial curve, poor fit]"
OCc1ccc(-c2nn(Cc3ccccc3)c3ccccc23)o1,Potency,Papain (Carica papaya),active: 25.1 µM
O=S(=O)(O)CC(S)CS (centres undefined),Potency,[1],"inconclusive: 23.9 µM [inhibitor, partial curve, poor fit]"
Nc1nc(N)c2nc(CNc3ccc(C(=O)NC(CCC(=O)O)C(=O)O)cc3)cnc2n1 (centres undefined),Potency,Papain (Carica papaya),active: 3.55 µM
same,Potency,[2],"inconclusive: 0.0332 µM [inhibitor, full curve, poor fit]"
same,Potency,[3],"inconclusive: 0.0332 µM [inhibitor, full curve, poor fit]"
CC(C)(C)CC(C)(C)c1ccc(OCCOCC[N+](C)(C)Cc2ccccc2)cc1,Potency,[1],"inconclusive: 38.9 µM [inhibitor, single point]"
COc1ccc(C[C@H](N)C(=O)N[C@H]2[C@@H](O)[C@H](n3cnc4c(N(C)C)ncnc43)O[C@@H]2CO)cc1,Potency,[1],"inconclusive: 23.9 µM [inhibitor, partial curve, poor fit]"
same,Potency,[3],active: 0.258 µM
COc1cc(NS(C)(=O)=O)ccc1Nc1c2ccccc2nc2ccccc12,Potency,Papain (Carica papaya),active: 22.4 µM
same,Potency,[2],active: 0.417 µM
C[C@@]12C(=O)OC(=O)[C@]1(C)C1CCC2O1,Potency,[4],inactive
same,Potency,[3],active: 2.66 µM
CCCCCCNC(=O)n1cc(F)c(=O)[nH]c1=O,Potency,[5],"inconclusive: 13.8 µM [falling, partial curve]"
same,Potency,[1],"inconclusive: 15.5 µM [inhibitor, partial curve]"
CC(C)N=c1cc2n(-c3ccc(Cl)cc3)c3ccccc3nc-2cc1Nc1ccc(Cl)cc1,Potency,[5],"inconclusive: 1.69 µM [falling, full curve]"
same,Potency,[1],"inconclusive: 1.69 µM [inhibitor, full curve]"
NNCCc1ccccc1,Potency,[1],"inconclusive: 19.5 µM [inhibitor, partial curve]"
same,Potency,[2],inactive
same,Potency,[3],"inconclusive: 23.7 µM [inhibitor, partial curve, poor fit]"
CN(C)c1ccc(C(=C2C=CC(=[N+](C)C)C=C2)c2c(O)c(S(=O)(=O)[O-])cc3cc(S(=O)(=O)O)ccc23)cc1,Potency,[1],"inconclusive: 37.9 µM [inhibitor, single point]"
COC(=O)[C@H]1[C@H]2C[C@@H]3c4[nH]c5cc(OC)ccc5c4CCN3C[C@H]2C[C@@H](OC(=O)/C=C/c2cc(OC)c(OC)c(OC)c2)[C@@H]1OC,Potency,[6],inactive
CC(=O)[C@]1(O)Cc2c(O)c3c(c(O)c2[C@@H](O[C@H]2C[C@H](N)[C@H](O)[C@H](C)O2)C1)C(=O)c1c(O)cccc1C3=O,Potency,[7],"inconclusive: 63 µM [activator, partial curve] and active: 70.6 µM"
same,Potency,[8],inactive
CCOC(=O)C1=C(C)NC(C)=C(C(=O)OC)C1c1cccc([N+](=O)[O-])c1 (centres undefined),Potency,[8],"inconclusive: 35 µM [inhibitor, partial curve]"
CC1=C(/C=C/C(C)=C/C=C/C(C)=C/C=C/C=C(C)/C=C/C=C(C)/C=C/C2=C(C)CCCC2(C)C)C(C)(C)CCC1,Potency,[9],inactive
